A collection of fitness landscapes (doi:10.1126/science.1257360)
Some of the results follow.

B1: PhoQ; a variant is named by its letters at X, in order, P23837 (parent)
chain: MKKLLRLFFPLSLRVRFLLATAAVVLVLSLAYGMVALIGYSVSFDKTTFRLLRGESNLFYTLAKWENNKLHVELPENIDKQSPTMTLIYDENGQLLWAQRDVPWLMKMIQPDWLKSNGFHEIEADVNDTSLLLSGDHSIQQQLQEVREDDDDAEMTHSVAVNVYPATSRMPKLTIVVVDTIPVELKSSYMVWSWFIYVLSANLLLVIPLLWVAAWWSLRPIEALAKEVRELEEHNRELLNPATTRELTSLVRNLNRLLKSERERYDKYRTTLTDLTHSLKTPLXXLQXXLRSLRSEKMSVSDAEPVMLEQISRISQQIGYYLHRASMRGGTLLSRELHPVAPLLDNLTSALNKVYQRKGVNISLDISPEISFVGEQNDFVEVMGNVLDNACKYCLEFVEISARQTDEHLYIVVEDDGPGIPLSKREVIFDRGQRVDTLRPGQGVGLAVAREITEQYEGKIVAGESMLGGARMEVIFGRQHSAPKDE

Variants of: B1
Experiment: enrichment ratio after two sorts for PhoP signalling (ratio (wild type AVST 3.29)); higher = more functional
Conditions: with PhoP (E. coli)

Variant	enrichment ratio
YFNS	≤ 0.25
LGWH	≤ 0.25
AMYV	≤ 0.25
PKWY	≤ 0.25
MGVK	≤ 0.25
WVQF	≤ 0.25
HPVE	≤ 0.25
RGYD	≤ 0.25
PDWI	≤ 0.25
PNRK	≤ 0.25
ECVP	≤ 0.25
AEQT	10.8
LPYH	≤ 0.25
VIYG	≤ 0.25
DHWE	≤ 0.25
GTRN	≤ 0.25
EDTD	≤ 0.25
IFRI	≤ 0.25
RKTM	≤ 0.25
VDPI	≤ 0.25
FSNF	≤ 0.25
VTRI	≤ 0.25
GPDD	≤ 0.25
KAMI	≤ 0.25

Variant	enrichment ratio
QVNF	1.28
IQDA	≤ 0.25
VPLA	≤ 0.25
RDMP	≤ 0.25
SYLN	≤ 0.25
GMPI	≤ 0.25
TNTC	11.6
IRRT	≤ 0.25
SSHL	3.31
FRHR	≤ 0.25
ALHQ	≤ 0.25
WAPH	≤ 0.25
ESRP	≤ 0.25
SKDC	≤ 0.25
KLLV	≤ 0.25
QEHS	8.42
DYGA	≤ 0.25
LHTC	≤ 0.25
FTPN	≤ 0.25
LVFY	≤ 0.25
NLWM	≤ 0.25
EFTN	≤ 0.25
GKNL	≤ 0.25
DNHT	≤ 0.25

Variant	enrichment ratio
HRVK	≤ 0.25
PPTS	≤ 0.25
KYRW	≤ 0.25
AFRA	≤ 0.25
HDGC	≤ 0.25
NRTF	≤ 0.25
DVDV	≤ 0.25
PRPY	≤ 0.25
MIYV	7.62
IPCG	≤ 0.25
KFHS	≤ 0.25
SVQE	≤ 0.25
AKIK	≤ 0.25
NWSA	≤ 0.25
FWPD	≤ 0.25
HRHW	≤ 0.25
NGGG	≤ 0.25
FNIG	≤ 0.25
MIGA	≤ 0.25
AQPF	≤ 0.25
QKPM	≤ 0.25
LAID	≤ 0.25
LHFC	≤ 0.25
FPFF	≤ 0.25

Variant	enrichment ratio
PSQL	≤ 0.25
WRLN	≤ 0.25
PLMQ	≤ 0.25
YYHN	≤ 0.25
SACW	1.34
IVPW	≤ 0.25
KTTS	≤ 0.25
VLFP	≤ 0.25
KICT	≤ 0.25
FNVG	≤ 0.25
ERQF	≤ 0.25
YIWV	≤ 0.25
EMRR	≤ 0.25
RWAL	≤ 0.25
FNGP	≤ 0.25
MVPE	≤ 0.25
ALPK	≤ 0.25
SLKT	≤ 0.25
PASR	≤ 0.25
AINT	≤ 0.25
KQIL	≤ 0.25
SMSQ	11.1
RQSV	≤ 0.25
SKVQ	5.75

Variant	enrichment ratio
VWCH	≤ 0.25
YLRF	≤ 0.25
YRYS	≤ 0.25
MAIV	≤ 0.25
NFHI	≤ 0.25
VHMQ	≤ 0.25
FGDT	≤ 0.25
QSLI	≤ 0.25
TITN	5.09
ELSI	≤ 0.25
NVFW	≤ 0.25
RNMF	≤ 0.25
EMTR	≤ 0.25
FKKD	≤ 0.25
DCEI	≤ 0.25
WYRV	≤ 0.25
KCFH	≤ 0.25
WQPG	≤ 0.25
STMS	15.6
TDTD	≤ 0.25
LTNK	≤ 0.25
DYCR	≤ 0.25
EQDR	≤ 0.25
IRMN	≤ 0.25

Variant	enrichment ratio
SWAH	≤ 0.25
IIFH	≤ 0.25
SWMT	≤ 0.25
KELL	≤ 0.25
RSKL	≤ 0.25
SMYA	≤ 0.25
APKL	≤ 0.25
IFAQ	≤ 0.25
MRAY	≤ 0.25
LYCR	≤ 0.25
AHHD	≤ 0.25
QDDQ	≤ 0.25
HLYM	≤ 0.25
VTGV	≤ 0.25
YGRM	≤ 0.25
ENIP	≤ 0.25
QLEP	≤ 0.25
ILKK	≤ 0.25
FHDN	≤ 0.25
YLAA	≤ 0.25
FYQR	≤ 0.25
ATMW	26.9
FEYN	≤ 0.25
AMTM	11.1

Variant	enrichment ratio
ESFY	≤ 0.25
NQYY	≤ 0.25
NPYA	≤ 0.25
NCSD	≤ 0.25
NMPV	≤ 0.25
NNLD	≤ 0.25
NENC	≤ 0.25
ITFS	≤ 0.25
RVHC	≤ 0.25
HSQF	≤ 0.25
IVSI	≤ 0.25
THNE	≤ 0.25
VPLD	≤ 0.25
GYNQ	≤ 0.25
IYKQ	≤ 0.25
TIPK	≤ 0.25
NFNQ	≤ 0.25
IPHV	≤ 0.25
FQWI	≤ 0.25
RYFN	≤ 0.25
YFKC	≤ 0.25
IYYW	≤ 0.25
TFCY	0.755
YIYT	≤ 0.25

Variant	enrichment ratio
QQHH	≤ 0.25
GKHW	≤ 0.25
LKDL	≤ 0.25
WLIG	≤ 0.25
DEIN	≤ 0.25
VQPT	≤ 0.25
DSQC	≤ 0.25
FWYP	≤ 0.25
MWLG	≤ 0.25
EYCN	≤ 0.25
IVLL	1.17
QTPD	≤ 0.25
HYLG	≤ 0.25
TWHD	≤ 0.25
YRGD	0.618
HKPS	≤ 0.25
PQRE	≤ 0.25
YTKN	≤ 0.25
STHH	≤ 0.25
PTIS	≤ 0.25
LRNV	≤ 0.25
KYDS	≤ 0.25
ADKR	≤ 0.25
QWHT	≤ 0.25

Variant	enrichment ratio
QMCD	≤ 0.25
FHCD	≤ 0.25
GWIL	≤ 0.25
QCPD	≤ 0.25
IYEK	≤ 0.25
EFWN	≤ 0.25
VEDT	≤ 0.25
KGHY	≤ 0.25
KVPL	≤ 0.25
AKRF	≤ 0.25
VDVP	≤ 0.25
HPCW	≤ 0.25
MRVS	≤ 0.25
MRKS	≤ 0.25
LEVD	≤ 0.25
AFGP	≤ 0.25
DAKS	≤ 0.25
WFIM	≤ 0.25
WLTD	≤ 0.25
TSTP	≤ 0.25
WIAP	≤ 0.25
QSGM	21.6
LVQK	≤ 0.25
IGDE	≤ 0.25

Variant	enrichment ratio
YTNG	≤ 0.25
WFIH	≤ 0.25
SESY	25.4
IYHR	≤ 0.25
NPDL	≤ 0.25
QTKP	≤ 0.25
PQND	≤ 0.25
SIYI	≤ 0.25
IQIS	≤ 0.25
WRTD	≤ 0.25
HQNG	≤ 0.25
RQAH	≤ 0.25
DRTD	≤ 0.25
KRAG	≤ 0.25
IPPK	≤ 0.25
NSCR	≤ 0.25
KRYN	≤ 0.25
SCRP	≤ 0.25
LFAG	≤ 0.25
NAFN	≤ 0.25
FHND	≤ 0.25
YSNI	≤ 0.25
AQRG	≤ 0.25
YTQV	≤ 0.25

Variant	enrichment ratio
AFKC	≤ 0.25
HNGS	≤ 0.25
GMVD	≤ 0.25
WNTF	≤ 0.25
FEFW	≤ 0.25
FDRT	≤ 0.25
GMFC	≤ 0.25
VEIY	≤ 0.25
RSMV	≤ 0.25
WPEG	≤ 0.25
PLLR	≤ 0.25
SEKY	≤ 0.25
SMDF	≤ 0.25
WFKA	≤ 0.25
VWDP	≤ 0.25
LMGQ	≤ 0.25
LSWF	≤ 0.25
RLGW	≤ 0.25
KHLI	≤ 0.25
TQHY	1.07
NHDG	≤ 0.25
GALH	6.12
DRVK	≤ 0.25
ALGG	≤ 0.25

Variant	enrichment ratio
TCRN	≤ 0.25
KEAQ	≤ 0.25
WDRY	≤ 0.25
THQH	23.5
EFVH	≤ 0.25
DVHA	≤ 0.25
LGHV	≤ 0.25
HEWI	≤ 0.25
RWDM	≤ 0.25
FAMQ	45
VSYA	≤ 0.25
RCRD	≤ 0.25
IFEL	≤ 0.25
FHLE	≤ 0.25
WMRA	≤ 0.25
VGSM	1.7
CMSP	≤ 0.25
REND	≤ 0.25
GQHC	≤ 0.25
PAFS	≤ 0.25
PEGH	≤ 0.25
MMKD	≤ 0.25
STFP	≤ 0.25
VNLF	≤ 0.25

Variant	enrichment ratio
FKWM	≤ 0.25
QSCF	≤ 0.25
HDAE	≤ 0.25
QQTC	≤ 0.25
NGVG	≤ 0.25
LGTM	≤ 0.25
GFDQ	≤ 0.25
MKQG	≤ 0.25
FPVN	≤ 0.25
FQCD	≤ 0.25
HRKV	≤ 0.25
MWSL	≤ 0.25
THGP	≤ 0.25
VLMW	≤ 0.25
LCQW	≤ 0.25
PWNK	≤ 0.25
NNDS	≤ 0.25
AITM	23.3
